# This is one part of the list.
# System: T1, C. trachomatis L2/434/Bu expressing GFP (CTL2-GFP)
# T1 construct: L2/434/Bu GFP intracellular growth in HeLa cells
# Parameters: species or system HeLa; C. trachomatis total inclusion area by high-content imaging, normalised to DMSO
# Settings: total inclusion area; 28.5 h, 10 µM; inhibitor
# How it was run: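 Imaging read-out: GFP inclusions and Hoechst nuclei captured by high-content imaging after fixation. Inclusion area/number = chlamydial growth; nuclei count = host cell viability. MIC calculated per earlier method.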
row,SMILES,% of control remaining
1,O=C(Nc1ccccc1N1CCNCC1)c1ccoc1 [CBK029442T],114.847
2,CCOC(=O)c1cccc(NS(=O)(=O)c2ccc(Br)cc2)c1 [CBK034346],65.7991
3,Cc1cc(-c2ccccc2)nn1C(CC(=O)O)C(=O)O (stereo not drawn) [CBK263480],46.9723
4,Cc1c(N)c(=O)n2nc(C(F)(F)F)nc2n1C [CBK020172],102.849
5,Cc1cc(NS(=O)(=O)c2ccc(NC(=S)NC(=O)C(C)(C)C)cc2)no1 [CBK268877],38.7909
6,O=S(=O)(c1ccc(F)cc1)N1CCN(c2ncnc3scc(-c4ccccc4)c23)CC1 [CBK264864],118.939
7,CCNc1cccnc1N(CC)C1CCN(C(=O)c2cc3cc4c(cc3[nH]2)OCO4)CC1 [CBK016815],102.016
8,CCNC(=O)Nc1ncc(-c2ccc(OC(F)(F)F)cc2)c2cccnc12 [CBK070690],90.5766
9,O=C(O)C1CCC1C(=O)N1CCN(c2ccc(C(F)(F)F)cn2)CC1 (stereo not drawn) [CBK057147],89.3042
10,CCOc1ccc(S(=O)(=O)N(C)CC(=O)N2CCN(C)CC2)cc1 [CBK269953],40.0904
11,CNS(=O)(=O)c1ccc(NC(=O)c2cc(-c3cccnc3)nc3ccc(Br)cc23)cc1 [CBK267776],102.785
12,CC(=O)Nc1ccc(C(=O)N/C(=C/c2ccccc2)C(=O)O)cc1 [CBK265353],86.5493
13,O=C1CCC(=O)N1CCn1c(=O)n(S(=O)(=O)c2ccc(-c3ccccc3)cc2)c2ccccc21 [CBK106494],101.475
14,COc1ccc(C(CC(=O)c2ccc(C)cc2)Nc2ccc([N+](=O)[O-])cc2)cc1 (stereo not drawn) [CBK268187],81.4695
15,Cc1cc(C(=O)NC2CCCOC2)c2cccc(Cl)c2n1 (stereo not drawn) [CBK282459],126.287
16,CC(=O)c1cc(C(=O)Nc2cnn(Cc3ccc(F)cc3)c2)cs1 [CBK282528],99.4891
17,CN(Cc1ccc2ncccc2c1)C(=O)C1CN(S(=O)(=O)c2ccc(F)cc2)C1 [CBK285943],88.0653
18,COc1ccc(C(=O)N2CCC(C)CC2)cc1[N+](=O)[O-] [CBK074341],92.6829
19,CC1CCCN(C(=O)CCn2c(C(F)F)cc3cccnc32)C1 (stereo not drawn) [CBK285025],92.7075
20,C(=N/OCc1ccccc1)/c1c[nH]c2ccccc12 [CBK168629],79.6894
21,CCC(C)N(C)CCNC(=O)Nc1ccc(F)c(-n2nnnc2C)c1 (stereo not drawn) [CBK305176],38.5124

row,SMILES,% of control remaining
1,C[C@H](Nc1cncc(-c2ccccc2CO)n1)c1ccccc1 [CBK065520],95.6142
2,COc1ccc(OC)c(NC(=O)CSc2nnc(-c3ccncc3)s2)c1 [CBK269209],110.752
3,Cn1ncc2c1CCCN(C(=O)COc1ccccc1F)C2 [CBK285324],118.732
4,CSc1nc(-c2ccccc2)nc(N)c1C(C)=O [CBK270762],133.709
5,Oc1[nH]nc2c1CCC2 [CBK260873],85.662
6,CC(=O)Nc1ccc(CCC2(NC(=O)C3CC3)CCCCC2)cn1 [CBK282290],89.058
7,CN1CCN(NC(=O)c2cc(-c3ccc(Cl)cc3)[nH]n2)CC1 [CBK116553],91.0742
8,O=C(Nc1nc2c(s1)CCCC2)c1ccccc1 [CBK287326],99.9131
9,CC(C)Oc1ccc(CCNC(=N)NC(=N)N)cc1Cl [CBK263966],64.3372
10,CC(C)(O)C1CCCN(C(=O)c2coc(COc3cccc(F)c3)n2)C1 (stereo not drawn) [CBK306977],100.651
11,Cn1c(SCCC(=O)O)nnc1-c1cccnc1 [CBK269077],76.1433
12,NC(=O)CN1CC2(CCNCC2)c2ccccc21 [CBK116314],93.5074
13,N=C1NC(=O)/C(=C/c2c(OS(=O)(=O)c3ccc(Cl)cc3)ccc3ccccc23)S1 [CBK265311],101.668
14,O=C(c1sc2ccccc2c1C1CCN(Cc2ccccc2F)C1)N1CCOCC1 (stereo not drawn) [CBK286260],105.521
15,O=C(C1CCC1)N1CCC(c2nnc3n2CCCCC3)CC1 [CBK284625],125.624
16,OCCN1CCN(CC(O)COCC2COc3ccccc3O2)CC1 (stereo not drawn) [CBK027374C],88.3677
17,N#CCCN(C(=O)NCc1ccc(F)cc1)C1CCCCC1 [CBK156372],77.168
18,O=C(NC1CC(=O)N(CCc2ccc(F)cc2)C1)c1cn2ccsc2n1 (stereo not drawn) [CBK307263],25.0433
19,CC(=O)N1CCC(c2c(C(=O)Nc3cccc(CN4CCCC4)c3)sc3ccccc23)C1 (stereo not drawn) [CBK285892],78.7064
20,Fc1cccc(-c2nccnc2NCCc2c[nH]c3ccccc23)c1 [CBK036861],114.322
21,O=C(O)CC1S\C(=N/N=C\C=C/c2ccccc2)N(c2ccc(O)cc2)C1=O (stereo not drawn) [CBK263688],110.963

row,SMILES,% of control remaining
1,Cc1sc2nc(SCc3cc(O)[nH]n3)nc(N)c2c1C [CBK264585],108.84
2,N=c1n(CC(=O)O)c2ccccc2n1Cc1ccc(Cl)cc1 [CBK262897B],93.2868
3,O=C(Nc1cc([N+](=O)[O-])ccc1O)c1ccc2c(c1)C(=O)N(Cc1cccnc1)C2=O [CBK266770],90.0697
4,Cc1cnc(C)c(N2CCN(C(=O)NCCSc3nncn3C)CC2)n1 [CBK306531],86.5346
5,CN(C)CCn1c(=O)oc2ccc(NC(=O)C3CCCO3)cc21 (stereo not drawn) [CBK304913],38.4925
6,CCn1c2cc(C)sc2c2cnn(CC(=O)OC)c(=O)c21 [CBK284186],79.8187
7,Cc1cc(C)n(-c2cccc(CN3CCC(CO)C3)c2)n1 (stereo not drawn) [CBK282928],110.027
8,O=C(O)Cc1ccc(-n2c(S)nnc2-c2ccncc2)cc1 [CBK268860],105.674
9,O=C1CC(Nc2ccc(N3CCOCC3)cc2)C(=O)N1CCc1ccccc1 (stereo not drawn) [CBK269339],62.1494
10,O=C(Nc1cccc2ccccc12)O[C@@H]1CO[C@H]2[C@@H]1OC[C@@H]2NC(=O)c1cccs1 [CBK289468],86.4049
11,Oc1cccc(/C=N/c2ccc(Cc3ccc(/N=C/c4cccc(O)c4)cc3)cc2)c1 [CBK261230],91.0098
12,c1ccc2c(c1)OCC(COc1ccnc(N3CCCN(CC4CCCCC4)CC3)n1)O2 (stereo not drawn) [CBK083982],43.6869
13,Nc1ncc(-c2cccc(C(=O)O)c2)nc1N1CCOCC1 [CBK063415],116.017
14,CCCC/C=C/c1cncc(NCc2cccc(Cl)c2)n1 [CBK065293],111.954
15,O=C(O)COc1cccc2ccccc12 [CBK218704],123.19
16,Cc1cc(C)cc(NC(=O)CC2Sc3ccccc3NC2=O)c1 (stereo not drawn) [CBK266384],127.789
17,CCCNC(CC(=O)Nc1ccccc1)C(=O)O (stereo not drawn) [CBK266819],108.699
18,CCC1CCc2c(sc(NC(=O)C3C4CCC(C4=C(C)C)C3C(=O)O)c2C(=O)OC)C1 (stereo not drawn) [CBK265424],102.254
19,O=C(O)COc1ccc(-c2nnn(CC(=O)O)n2)cc1 [CBK267124],121.923
20,Cc1c(C(=O)O)sc(S(=O)(=O)N2CCN(C(=O)Cc3ccccc3Cl)CC2)c1C(=O)O [CBK297137],88.9393
21,COc1ccc([C@@]23CCC(N)C[C@@H]2N(C)CC3)cc1OC (stereo partly drawn) [CBK003576],62.0546

row,SMILES,% of control remaining
1,CCOC(=O)NC(Nc1nc2ccccc2s1)(C(F)(F)F)C(F)(F)F [CBK008913],113.129
2,O=C(O)C1(Oc2ccc3ncccc3c2)CCN(Cc2ccoc2)CC1 [CBK307598],78.6442
3,OCCCNC(=S)NCCc1ccccc1 [CBK264869],109.761
4,CN(C)C(=O)CN1C(=O)N2CCN=C2c2ccccc21 [CBK283961],94.3099
5,CCOC(=O)c1c(/N=C/c2cc(I)cc(I)c2O)sc2c1CCN(Cc1ccccc1)C2 [CBK262246],72.223
6,O=S(=O)(Nc1nnc(C(F)(F)F)s1)c1ccc(Br)cc1 [CBK200047],86.5097
7,O=C(Cc1csc(-c2ccc(Cl)cc2)n1)NCCN1CCCC1 [CBK107306],108.106
8,CCCCn1c(SCC(O)COCc2ccc(OC)c(OC)c2)n[nH]c1=O (stereo not drawn) [CBK296653],98.1567
9,O=C(Cn1ccnc1)Nc1ccccc1Oc1ccc(F)cc1 [CBK281455],101.36
10,CCC1CCC2(CC1)NC(=O)N(CC(=O)Nc1nccs1)C2=O (stereo not drawn) [CBK305936],60.1839
11,O=C(COc1ccc2ccccc2c1)N1CCN(S(=O)(=O)c2ccccc2[N+](=O)[O-])CC1 [CBK264271],113.295
12,COc1ccccc1CCCN1CCC2(C1)NCCc1c2[nH]c2ccccc12 (stereo not drawn) [CBK040257],129.166
13,CCCOc1ccc(C(=O)N2CCN(c3ccccc3)CC2)cc1 [CBK304327],69.6443
14,COc1ccc2[nH]c3c(c2c1)CCN[C@]31CCN(CCOc2ccc(F)cc2)C1 [CBK089876T],43.8304
15,COc1cc(CN2CCC(C(=O)c3ccc(F)cc3)CC2)cc(OC)c1OC [CBK149112],89.02
16,CN1CCN(CCC(=O)N2CCN(C(=O)c3ccco3)CC2)CC1 [CBK144481],86.6236
17,O=C1N=C(NC2CCCCCC2)SC1CC(=O)N(Cc1ccccc1)c1ccccc1 (stereo not drawn) [CBK067394],59.0859
18,O=C1c2ccc3c4c(ccc(c24)C(=O)N1c1ccncc1)C(=O)N(c1ccncc1)C3=O [CBK261390],60.6101
